Experimental data reported in publication PMC11320734 (ACS Pharmacology & Translational Science, 2024).
Like-named read-outs stand apart in the source and are kept apart here.

Legend:
mouse CB2R (mCB2R) [1] = molecular target: T1, mouse CB2R (mCB2R) (Mus musculus, UniProt P47936)
mouse CB2R (mCB2R) [2] = molecular target: T1, mouse CB2R (mCB2R); experiment: biochemical

T1 sequence (P47936 whole entry): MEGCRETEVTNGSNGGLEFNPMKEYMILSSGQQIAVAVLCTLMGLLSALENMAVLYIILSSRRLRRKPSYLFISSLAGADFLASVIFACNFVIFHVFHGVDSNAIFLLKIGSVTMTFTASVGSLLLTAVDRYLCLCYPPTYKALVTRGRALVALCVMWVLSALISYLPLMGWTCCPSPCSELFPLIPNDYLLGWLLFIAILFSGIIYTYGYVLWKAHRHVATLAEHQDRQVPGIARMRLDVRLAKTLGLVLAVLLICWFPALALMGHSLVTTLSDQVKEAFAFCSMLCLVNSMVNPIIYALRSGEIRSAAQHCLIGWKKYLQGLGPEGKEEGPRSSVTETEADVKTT

SMILES: Cn1c(C(C)(C)C)cc(=NC(=O)c2cc(C(F)(F)F)ccc2OCC(C)(C)O)n1CC1CCC1 [RNB-61]
- mCB2R/hCB2R Ki ratio (mouse CB2R (mCB2R) [1]): 2.3
- inhibition of [3H]-batrachotoxin binding (Na^+ ion channel site 2; 1 μM): 32%
- inhibition of [3H]-batrachotoxin binding (Na^+ ion channel site 2; 10 μM): 96%

SMILES: COCCOCCc1cc(NC(=O)C(C)(C)S(=O)(=O)C2CCOCC2)on1 [RNB-70]
- Ki (mouse CB2R (mCB2R) [2]): 266 ± 68.9 nM
- mCB2R/hCB2R Ki ratio (mouse CB2R (mCB2R) [1]): 14.8

SMILES: N#Cc1cc(NC(=O)CCc2nc(-c3ccc(F)cc3Cl)no2)cnc1CC(F)(F)F [RNB-73]
- mCB2R/hCB2R Ki ratio (mouse CB2R (mCB2R) [1]): 0.56

SMILES: CC(C)(Oc1ccc(C(F)(F)F)cn1)C(=O)Cc1cc(C(C)(C)C)no1 [RNB-90]
- mCB2R/hCB2R Ki ratio (mouse CB2R (mCB2R) [1]): 3.9
